The list shows a part of the results. At the low end of the ranking the order means little.

The experiment concerns the target T1, GST-Rok-C97-191 (UniProt O34857).
T1 sequence: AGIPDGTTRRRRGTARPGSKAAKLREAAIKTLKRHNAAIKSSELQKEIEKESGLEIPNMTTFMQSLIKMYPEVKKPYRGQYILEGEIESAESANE
Briefly: protein binding microarray.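 Further: rank score from −0.5 (least bound) to 0.5 (best bound).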 Conditions: Rok is a gene silencer of Bacillus subtilis; high values mean tight binding; most listed sequences are background and not binding sites; double strand, one strand shown.
In turn, CGCATGAA displayed a binding signal of -0.347 E-score.
In the case of ATGTAAGC it was 0.0768 E-score.
In the case of AACCATTC it was -0.246 E-score; in that of CTAGTAAG, 0.153 E-score; in that of ATCCGCAA, -0.0421 E-score.
In turn, ACTTAGGG registered a binding signal of -0.0328 E-score.
In the case of CCGATTCG it was -0.134 E-score; in that of GAGTATTA, 0.187 E-score.
Sequence CTCAATAA showed a binding signal of 0.215 E-score.
Under CCTCCTGC stands -0.281 E-score.
GTTGAAAA came in with a binding signal of -0.013 E-score.
In the case of CAACCACC it was -0.102 E-score.
CGAGCCTA registered a binding signal of -0.0633 E-score.
In the case of AGCGGAGA it was -0.135 E-score; in that of AAGGGCCG, -0.211 E-score; in that of CCAAACAC, 0.0746 E-score.
Under CTTGAGCC stands -0.261 E-score; under GGGACATA, -0.158 E-score; under AATCGTCT, -0.105 E-score.
Sequence AACGGGTG gave a binding signal of -0.0409 E-score.
Under AGGAGGGC stands -0.397 E-score; under GTGTCCAA, -0.156 E-score; under AAGGGGAA, -0.026 E-score.
In the case of TGGCCACA it was 0.0325 E-score; in that of CTAGCGAA, 0.199 E-score.
In the case of CATATTAC it was 0.22 E-score; in that of ATATTGTA, 0.363 E-score.
Take CCGACAAG: the binding signal is -0.171 E-score.
In the case of CGAAATAA it was 0.198 E-score; in that of CCTCTAAC, -0.0549 E-score; in that of AAACACCG, 0.035 E-score.
In the case of CGTCAGAC it was -0.0702 E-score; in that of ACGCTTCT, -0.142 E-score; in that of AGCTCTTC, -0.066 E-score.
Under GTGCATTA stands 0.0863 E-score; under GGCTCCTA, -0.249 E-score; under GCACCCCA, -0.183 E-score.
CAGTAAAA registered a binding signal of 0.188 E-score.
On to AGTGTTAA, for which the binding signal came out at 0.0572 E-score.
Under AAGACTTA stands 0.0286 E-score; under ATGAATTA, 0.293 E-score; under GCAAACGC, -0.174 E-score.
CACATGTG showed a binding signal of -0.122 E-score.
AGAACGCA had a binding signal of -0.159 E-score.
Under ATCCTGCC stands -0.077 E-score; under ACCCCCTA, -0.352 E-score.
In the case of AGTTTCGC it was 0.195 E-score; in that of ACCAACTC, 0.106 E-score.
In the case of TGTATGAA it was 0.0242 E-score; in that of ACCGCCAC, -0.137 E-score; in that of GCTACACA, 0.135 E-score.
For the sequence CCGGAACC, the binding signal was -0.0787 E-score.
Sequence CATGTAGG had a binding signal of 0.155 E-score.
In the case of CAAACGCG it was -0.194 E-score; in that of CTATTCAA, 0.154 E-score; in that of GCTAGAGC, -0.091 E-score.
In the case of AAACATCA it was 0.128 E-score; in that of ACATGCAG, 0.0839 E-score.
In the case of GGCGGAAA, the binding signal is -0.0676 E-score.
Consider AAGTGGAC, for which the binding signal was -4.12e-06 E-score.
Under GATTTATA stands 0.304 E-score.
In the case of CGACGGAG it was -0.158 E-score; in that of CGATGACA, -0.0553 E-score.
Under CTTATAGC stands 0.105 E-score; under CAGTGCCG, -0.128 E-score; under AAAGTCTT, -0.0704 E-score.
Regarding CACGCTCC, the binding signal was -0.132 E-score.
In the case of CTAGGGAC it was 0.0511 E-score; in that of GCGCCCAC, -0.236 E-score.
The sequence AGCACGAT showed a binding signal of 0.0894 E-score.
In the case of CTACCTCC it was 0.167 E-score; in that of AGTAAGTG, 0.152 E-score; in that of AGGAAATC, 0.0504 E-score.
With AAGGGTGT, the binding signal is -0.0142 E-score.
As for CTCAGCAC, the binding signal is -0.156 E-score.
GGTTCCTA displayed a binding signal of 0.0539 E-score.
Under CCCACGTC stands -0.222 E-score.
Under ATGCCAAC stands -0.0774 E-score; under GACGAGTC, -0.0746 E-score; under ACTGGTCA, -0.0495 E-score.
Under AGGGCCCG stands -0.247 E-score; under AGTAGACC, 0.0544 E-score.
Regarding GGATTCAC, the binding signal was -0.0342 E-score.
In the case of AATAATCC it was 0.0954 E-score; in that of AGGTAGAA, 0.433 E-score; in that of AGTGCACC, -0.075 E-score.
In the case of ACATACAC it was 0.179 E-score.
Take CCAGATAC: the binding signal came to 0.0727 E-score.
Take CCACCAAA: the binding signal worked out at 0.0115 E-score.
In the case of CCCCATAC it was -0.121 E-score; in that of CAATAGGC, -0.168 E-score.
Regarding AGAGTTAA, the binding signal amounted to 0.085 E-score.
Under AAAGTGCG stands -0.107 E-score; under AGAATTCC, 0.151 E-score; under AGCCAACA, -0.128 E-score.
Under GCACCGAC stands -0.199 E-score.
In the case of CACGGATA it was -0.0437 E-score.
AACTCAGC displayed a binding signal of 0.019 E-score.
In turn, CCCGTTAG returned a binding signal of -0.257 E-score.
Turning to CTATAGAA, the binding signal was 0.283 E-score.
Under GGAGAAGA stands 0.00625 E-score; under TGCGACAA, -0.0569 E-score; under CCTCTTAG, 0.029 E-score.
In the case of CTTTCTTC it was 0.0829 E-score; in that of AAAAGATA, 0.137 E-score; in that of GCACCGCC, -0.27 E-score.
Under GAAGCGAC stands -0.216 E-score.
The sequence ATTGTCGG had a binding signal of -0.097 E-score.
Under AACTAACA stands 0.126 E-score.
Under ATGGCAAT stands -0.0754 E-score; under AGAAGGCG, -0.234 E-score; under AAAAATTC, 0.00754 E-score.
In the case of ATACAACC it was 0.201 E-score; in that of AGCCATAT, 0.145 E-score.
Regarding GTAGATTA, the binding signal was determined as 0.344 E-score.
Take CTACTGCA: the binding signal was 0.0822 E-score.
In the case of GACTGCCA it was -0.228 E-score.
In the case of ACTCGTCC it was -0.0994 E-score; in that of CGACCATC, -0.173 E-score; in that of AAACTCCC, 0.0527 E-score.
Under CACCTCGA stands -0.145 E-score; under GAATGAAC, -0.00783 E-score.
The sequence CAGTCAGA came in with a binding signal of -0.00775 E-score.
As for ACAGTCCA, the binding signal is -0.301 E-score.
In the case of CCTAAAGG it was -0.344 E-score.
Sequence GGCTAGTA registered a binding signal of 0.115 E-score.
The sequence AGTATTAC yielded a binding signal of 0.307 E-score.
For AGGTCCGC, the binding signal is -0.182 E-score.
Consider TCTTCACA, for which the binding signal came to 0.0725 E-score.
Sequence ACCCCACG registered a binding signal of -0.16 E-score.
Sequence AGTTCAGG registered a binding signal of -0.0399 E-score.
Under ACACTCGC stands 0.0723 E-score; under TAAGCAGA, -0.0954 E-score; under ATAATTGG, 0.25 E-score.
Under TACCGAAA stands 0.188 E-score; under CTTAAGGA, -0.119 E-score; under GGCCTAGA, -0.0387 E-score.
Under TGGCGAAA stands 0.0439 E-score.
In turn, GAGATAGC gave a binding signal of 0.023 E-score.
In the case of GTTTGAGA it was 0.128 E-score; in that of AGTCGCAG, -0.091 E-score.
In the case of AGACCCAT it was 0.113 E-score.
As for CCTTGGAC, the binding signal is -0.131 E-score.
ACGACCAG: the binding signal is -0.141 E-score.
GCTTTATA gave a binding signal of 0.087 E-score.
Under ATCGTCAG stands -0.0862 E-score; under CAGACCGA, -0.0418 E-score; under CGGGCACA, -0.127 E-score.
In the case of GCTGGACC it was -0.155 E-score; in that of CGGTCACC, -0.113 E-score; in that of AACAGCGG, -0.0981 E-score.
In the case of AAGCTTTG it was -0.0491 E-score.
Turning to CGGTGCTA, the binding signal was -0.0714 E-score.
In the case of GCCAGAGA it was -0.0535 E-score.
In the case of ATGTATCC it was 0.131 E-score; in that of GCCCCCGC, -0.246 E-score.
In the case of CTCTCCTC it was -0.229 E-score; in that of AGCCCATC, -0.28 E-score.
The sequence ACGCGCCA came in with a binding signal of -0.132 E-score.
In the case of CACGAACG it was -0.142 E-score.
Under ACTGGTTC stands 0.0803 E-score; under CGCGTATA, 0.112 E-score; under AGCCTTCC, -0.293 E-score.
Sequence GGGCTCAC came in with a binding signal of -0.218 E-score.
In the case of ATAGGGCG it was -0.0786 E-score; in that of CACGCACA, 0.0384 E-score.
Under AACTAAGC stands -0.002 E-score; under AGCTCAGA, -0.0615 E-score; under AGCAACTG, -0.0869 E-score.
Under ACTCCGCA stands -0.026 E-score.
The sequence GCGCGGAA gave a binding signal of -0.0279 E-score.
As for ATGTCATA, the binding signal turned out to be 0.166 E-score.

(Values after publication PMC6212790.)
